This is one part of the list.
test system: PfAP2-HC AP2 domain (GST-tagged); assay: gcPBM binding intensity (ln(normalized median fluorescence intensity)); higher = stronger DNA binding
In short: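 After 1 h on an Agilent 4 × 180k array of primer-extended double-stranded 36-bp intergenic genomic probes and negative controls, bound GST-tagged P. falciparum DNA-binding domains were detected with Alexa488 anti-GST antibody and scanned at 488 nm. The domains had been expressed in E. coli, and binding took place in 1× PBS with 1% milk, 0.2 mg/ml BSA, 0.5% salmon testes DNA and 0.03% Triton X-100. Binding intensity is the highest Masliner-normalised natural-log median intensity across replicate spots of either probe orientation.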

Sequence | gcPBM binding intensity (ln)
AATATTTTAAAAAAAAGTACATTATATATATATGTT [XGTACX_site8073] | 9.38
TGTAGTCTGGAGAAGAGTACACAGTATCTGGTAACA [XGTACX_site2038] | 9.68
TAGTATTAAAATATTTGTACTTATATGTATTATATA [XGTACX_site538] | 9.59
AAAGAAATGAAATATACACACATACATAAATACATA [CACACA_site6081] | 10.3
AATTATATATTATAATGTACATATATATAACTATAC [XGTACX_site1865] | 9.67
ATAAAGGAAATTACAAGTACAAATAAGATAAAATAA [XGTACX_site4514] | 9.76
ATATATTTAAACTACACACGCATATCTTAGAAATAA [CACACA_site1272] | 9.78
TATAAAAAAAGAGGAGGGATGGTATACTTGTGGTTT [TGCATGCA_negctrl_site49] | 9.97
TTTTTTTTATGGTACACACACGCGTATGGTTGCACG [CACACA_site1877] | 9.9
TTATTTTTGTTCATAGTGCATAGAATTTATACATAT | 9.74
ATAGACAGCGCACAAACACACAAACACAGACCCCCA [CACACA_site4409] | 10.2
ATTTATTTATTGGCACGTACAAATTTGTGTTTTCCA [XGTACX_site6978] | 9.72
TTGTAAATTTCTGGTTATATATTTTATGTATATGTT [CACACA_negctrl_site1443] | 9.81
TTTTTTTCTTTTCAAACACACAATTGGTATATATCA [CACACA_site7542] | 9.72
ATATATATATATATATGTACTGAATAAAGAACAAAA [XGTACX_site5400] | 9.8
CGTATATGACAAAAGCGTACGCATCAGCAGAAAAAT [XGTACX_site6248] | 9.66
AGAATATGTTAAAAAAGTACATACTCTTTATATACG [XGTACX_site79] | 9.58
TAAAAAAAAACATATACACACAAAAACGTACACATA [CACACA_site1354] | 10.1
TTTTTTTCTCACAATCGTACATAAATACATATATAT [XGTACX_site3150] | 9.91
TAATGTACATAAACCGCACACATATAAAAAAATAAA [CACACA_site2851] | 9.98
TATATTTTTTAAACCACACACAATATAGAGTAGAAT [CACACA_site613] | 10.2
AGGGGAAATAAAATATAAATTATCATATATATATAT [XGTACX_negctrl_site366] | 9.62
AGAAATAAGAAATATACACACATATAAATATAAATA [CACACA_site7342] | 10.2

Sequence | gcPBM binding intensity (ln)
TTTTAAAATTATTAGGTGCATATTTATTCTATATTT | 9.63
TGTTTTTTTATTTTCACACATAATCCAATTATACAT [CACACA_site6070] | 9.88
TGCAATGGAGCATAAAGTACATATAATTGTATTTTT [XGTACX_site7349] | 9.55
AATACAGAGGAAAATACACACGTATATATATAAATA [CACACA_site9125] | 9.99
TAGAATAATCCTTACACACACACACCCACGAATAAA [CACACA_site483] | 10.5
ATCAACAAAACATACACACACATATATATATATATA [CACACA_site2989] | 10.3
TTTCTATATCTATTTAATTAACTTTTTATACTGATT [GTGCAC_negctrl_site415] | 9.75
GCATCTCATTTGTGATGTACTATATTATCCGTTTTT [XGTACX_site7576] | 9.71
CACATAAAAAAATAAACACACATATGTATTTATATA [CACACA_site5718] | 9.78
CATATCATTGATTATAGTACACATACCATTTTTTAT [XGTACX_site6572] | 9.81
AATAAAAATAATATAGTGCATAATATAAGGAAAAAA | 9.87
TTAAAAAAATATAGAGCATGCTAAAAATAAAAAAAT [TGCATGCA_site794] | 10.2
CAACACTTAGATTTTAAGTTCACTGGTTAATATATA [CACACA_negctrl_site707] | 9.48
AGGTCTATATAATAAGTGCATTTTTTTTTTTTTTTT [GTGCAC_site9664] | 9.49
GTTATACTCATCAACACACACATACAACGTGGTGTA [CACACA_site4789] | 10.2
AGTAATATAATATAAGCACACGTGTATTTATTTAGG [CACACA_site7921] | 9.88
AAAAAAAAAAAAAAATACAAGCACATTTATATAAGC [GTGCAC_negctrl_site695] | 9.77
AAATACATTAAAATGACATGCAGATATATATCAAAA [TGCATGCA_site477] | 9.85
TATATATCAATATTTACACACATGCGCCCACATAAA [CACACA_site7185] | 10.1
TATATGTTTGAATATACACACAACATATTTATATAT [CACACA_site7832] | 9.74
AAAAAAAAAAAATATGTACACACATATATAATACAT [CACACA_site8473] | 9.99
TTTTTTGTTAAAAGAGTGCAAATTTTTAAAGATTTG [GTGCAC_site9502] | 9.21

From the supplement of paper PMC11417369
